Assay results taken from PubChem BioAssay AID1030 (National Center for Advancing Translational Sciences (NCATS), 2008).
Among all 220,000 compounds or so, about 16,000 (7.3%) were called active. Inconclusive means that the source gave no clear call. Such entries were picked first, then a sample of the others. Calls come from the whole dose curve; as a rule, active = well fitted inhibition curve with a large enough effect (not every such curve was filed as active); inconclusive = small, poorly fitted or top-dose-only effect, or another doubt; inactive = no such curve, though single readings can be large or run the other way. Potencies of inconclusive entries are left out as doubtful fits.

What follows are compounds tested against Aldehyde dehydrogenase 1A1 (Homo sapiens) (UniProt P00352) (assay: qHTS Assay for Inhibitors of Aldehyde Dehydrogenase 1 (ALDH1A1)). Details: Purified ALDH1A1, NADH fluorescence, propionaldehyde substrate; series mostly up to 75.3 µM.
Chain of UniProt P00352 (P00352 whole entry, looked up): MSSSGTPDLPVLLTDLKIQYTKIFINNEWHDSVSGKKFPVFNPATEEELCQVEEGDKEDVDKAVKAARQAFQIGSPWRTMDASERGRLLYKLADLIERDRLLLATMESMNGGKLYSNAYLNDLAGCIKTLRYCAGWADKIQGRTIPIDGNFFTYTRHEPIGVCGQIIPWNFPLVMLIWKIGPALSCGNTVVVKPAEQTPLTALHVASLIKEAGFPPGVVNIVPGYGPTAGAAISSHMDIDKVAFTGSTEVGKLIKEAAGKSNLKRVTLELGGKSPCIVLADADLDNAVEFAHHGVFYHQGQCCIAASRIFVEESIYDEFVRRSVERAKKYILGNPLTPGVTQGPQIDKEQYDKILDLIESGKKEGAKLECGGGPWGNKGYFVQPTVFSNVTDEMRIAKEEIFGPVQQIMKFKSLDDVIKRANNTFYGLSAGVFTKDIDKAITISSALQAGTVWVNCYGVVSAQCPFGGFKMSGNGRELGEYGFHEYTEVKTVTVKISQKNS
Potency is the fitted concentration of half-maximal effect; tags give direction and shape of the fitted curve.

SMILES | Potency
NC(=S)N/N=C1\CCOc2ccc(F)cc21 | inconclusive [inhibitor, single point]
O=C1CCCc2nc(N3CCN(C(c4ccccc4)c4ccccc4)CC3)ncc21 | inconclusive [inhibitor, single point]
Cc1cc(C(=O)CN2C(=O)NC3(CCCc4sccc43)C2=O)c(C)n1-c1ccccc1 (configuration not stated) | active: 28.2 µM
Cc1ccccc1N=C(NOCc1ccc(Cl)cc1Cl)c1nonc1N | inconclusive [inhibitor, single point]
COC(=O)c1nn(-c2ccc(OC)cc2)c(=O)c2c(N)sc(C)c12 | active: 7.94 µM
COc1ccc(-n2c(=S)[nH]c3cc(C(=O)NCc4ccco4)ccc3c2=O)c(OC)c1 | active: 0.316 µM
O=C(COC(=O)COc1ccc(Br)cc1)NCCC1=CCCCC1 | inconclusive [inhibitor, single point]
CC1CC(C)CN(C(=O)Cn2c(=O)n(CCCCC(=O)NC3CCCC3)c(=O)c3ccccc32)C1 (configuration not stated) | inactive
O=C(NCc1ccccn1)C1CCCN(S(=O)(=O)c2cccc3nsnc23)C1 (configuration not stated) | inactive
O=C(NCCc1c[nH]c2ccccc12)C(=O)NCC1OCCCN1S(=O)(=O)c1cc(F)ccc1F (configuration not stated) | inactive
COc1ccc(-c2cc(C(F)(F)F)nc(SCCC(=O)N3CCN4CCCC4C3)n2)cc1 (configuration not stated) | inconclusive [inhibitor, single point]
COc1ccc(CNC(=O)CS(=O)CC(=O)O)cc1OC (configuration not stated) | inactive
COc1ccc(/C=N/N=C2/NC(=O)C(CC(=O)O)S2)cc1OS(=O)(=O)c1ccccc1 (configuration not stated) | inconclusive [inhibitor, single point]
Fc1ccccc1-c1csc(=Nc2cccnc2)n1CCCn1ccnc1 | inconclusive [inhibitor, single point]
COc1cccc(NC(=S)/C(=C(\[O-])c2ccc(C)c([N+](=O)[O-])c2)[n+]2ccccc2)c1 | inconclusive [inhibitor, partial curve]
Clc1ccc2nc(CN3CCCCCC3)cn2c1 | inconclusive [inhibitor, partial curve]
COc1ccccc1C(=O)Nc1onc(C)c1C#N | inconclusive [inhibitor, single point]
CC1(C)CC(=O)C2=C(C1)c1c(ccc3ccccc13)NC2c1cc([N+](=O)[O-])cc([N+](=O)[O-])c1O (configuration not stated) | active: 11.2 µM
Cc1sc(NC(=O)c2sc3nc4c(C)cccc4cc3c2N)c(C#N)c1C | active: 2.82 µM
COc1cc([N+](=O)[O-])cc2sc(NC(=O)c3c(F)cccc3F)nc12 | active: 7.94 µM
CC(C)Cn1c(Br)nc2c1c(=O)n(CCC#N)c(=O)n2C | inactive
CCOc1ccc2[nH]c(C)c(CN(C)C)c(=O)c2c1 | inconclusive [inhibitor, partial curve, poor fit]
O=S(=O)(Cc1cc(Sc2ccc(Cl)cc2)nc(-c2ccccc2)n1)c1ccccc1 | inactive
CC(C)(C)NCc1ccc(OCc2cccs2)cc1 | inactive

SMILES | Potency
N#Cc1ccc(/C=C\c2nccc3c2[nH]c2ccccc23)cc1 | inconclusive [inhibitor, partial curve]
N#CCCN(C(=O)CSc1ccc2c(c1)OCCO2)c1ccccc1 | inconclusive [inhibitor, single point]
NS(=O)(=O)c1ccc(CCNc2nc3c(-c4cccc(F)c4)nnn3c3ccccc23)cc1 | inconclusive [inhibitor, partial curve]
COc1ccc(-n2c(=O)c(-c3cccs3)nc3cncnc32)cc1 | inconclusive [inhibitor, single point]
CC(=O)NC1=NC(=O)/C(=C/c2cn(C(C)=O)nc2-c2ccccc2)S1 | active: 10 µM
Cc1ccccc1Cn1c(=O)n(CCC(=O)NCc2ccc3c(c2)OCO3)c(=O)c2ccccc21 | inactive
CCOC(=O)c1c(NC(=O)c2nn(C)cc2[N+](=O)[O-])sc(C)c1C | inactive
COc1cc(CNC(C)(C)CO)cc(Br)c1OCc1ccccc1 | inactive
Cc1ccc(S(=O)(=O)N2CCC(=O)N(C(COCc3cccc(C)c3)Cc3ccccc3)CC2)cc1 (configuration not stated) | inconclusive [inhibitor, partial curve]
O=C1CN=C(Nc2ccccc2Cl)N1Cc1ccc2c(c1)OCO2 | inactive
COC(=O)c1ccc(C(NC(=O)OCc2ccccc2)/C(=C/[C@@H](C)C(=O)NCc2cc(F)cc(F)c2)c2cccnc2)cc1 (some centres not stated) | inactive
COC(=O)c1ccc(-n2cnc3ccccc32)nc1 | inactive
O=C(Cn1cnc2c(nnn2Cc2ccc(Cl)cc2)c1=O)OCc1ccccc1 | active: 12.6 µM
CCOC(=O)c1cn(-c2c(Cl)cccc2Cl)c2cc(Cl)c([N+](=O)[O-])cc2c1=O | inconclusive [inhibitor, single point]
CCN1CCC(=NNC(=O)c2ccco2)CC1 | inconclusive [inhibitor, single point]
CCc1nnc(NC(=O)c2cccc(C(=O)Nc3nnc(CC)s3)n2)s1 | inconclusive [inhibitor, partial curve, poor fit]
CC1(C)Cc2ccccc2-c2nnc(-c3ccccc3)n21 | inactive
CC1(CC(=O)N/N=C/c2ccc(-c3ccc(C(=O)O)cc3)o2)OCCO1 | inconclusive [inhibitor, single point]
O=C(CN1CCCCCC1)Nc1ccccc1 | active: 7.94 µM
CCN(CC)S(=O)(=O)c1ccc(C(=O)Nc2ncn(Cc3ccccc3)n2)cc1 | inconclusive [inhibitor, single point]
O=S(=O)(Nc1cccc(S(=O)(=O)N2CCOCC2)c1)c1ccc(Cl)s1 | inactive
CC1(C)CC2CC(C)(CN2C(=O)CN2C(=O)c3ccccc3C2=O)C1 (configuration not stated) | inactive
Cc1ccc(-n2c(=O)cc(N3CCC(C)CC3)[nH]c2=O)cc1 | inconclusive [inhibitor, single point]
